Among all 310,000 compounds or so, about 2,200 (0.71%) showed an effect of 50% or more. Effects have a minus sign here. The list shows a part of the results.
What follows are molecules tested against human ether-à-go-go-related gene (hERG) potassium channel (human, UniProt Q12809) (assay: primary screen, population patch clamp on CHO cells stably expressing hERG).
Sequence of human ether-à-go-go-related gene (hERG) potassium channel (Q12809 whole entry, looked up): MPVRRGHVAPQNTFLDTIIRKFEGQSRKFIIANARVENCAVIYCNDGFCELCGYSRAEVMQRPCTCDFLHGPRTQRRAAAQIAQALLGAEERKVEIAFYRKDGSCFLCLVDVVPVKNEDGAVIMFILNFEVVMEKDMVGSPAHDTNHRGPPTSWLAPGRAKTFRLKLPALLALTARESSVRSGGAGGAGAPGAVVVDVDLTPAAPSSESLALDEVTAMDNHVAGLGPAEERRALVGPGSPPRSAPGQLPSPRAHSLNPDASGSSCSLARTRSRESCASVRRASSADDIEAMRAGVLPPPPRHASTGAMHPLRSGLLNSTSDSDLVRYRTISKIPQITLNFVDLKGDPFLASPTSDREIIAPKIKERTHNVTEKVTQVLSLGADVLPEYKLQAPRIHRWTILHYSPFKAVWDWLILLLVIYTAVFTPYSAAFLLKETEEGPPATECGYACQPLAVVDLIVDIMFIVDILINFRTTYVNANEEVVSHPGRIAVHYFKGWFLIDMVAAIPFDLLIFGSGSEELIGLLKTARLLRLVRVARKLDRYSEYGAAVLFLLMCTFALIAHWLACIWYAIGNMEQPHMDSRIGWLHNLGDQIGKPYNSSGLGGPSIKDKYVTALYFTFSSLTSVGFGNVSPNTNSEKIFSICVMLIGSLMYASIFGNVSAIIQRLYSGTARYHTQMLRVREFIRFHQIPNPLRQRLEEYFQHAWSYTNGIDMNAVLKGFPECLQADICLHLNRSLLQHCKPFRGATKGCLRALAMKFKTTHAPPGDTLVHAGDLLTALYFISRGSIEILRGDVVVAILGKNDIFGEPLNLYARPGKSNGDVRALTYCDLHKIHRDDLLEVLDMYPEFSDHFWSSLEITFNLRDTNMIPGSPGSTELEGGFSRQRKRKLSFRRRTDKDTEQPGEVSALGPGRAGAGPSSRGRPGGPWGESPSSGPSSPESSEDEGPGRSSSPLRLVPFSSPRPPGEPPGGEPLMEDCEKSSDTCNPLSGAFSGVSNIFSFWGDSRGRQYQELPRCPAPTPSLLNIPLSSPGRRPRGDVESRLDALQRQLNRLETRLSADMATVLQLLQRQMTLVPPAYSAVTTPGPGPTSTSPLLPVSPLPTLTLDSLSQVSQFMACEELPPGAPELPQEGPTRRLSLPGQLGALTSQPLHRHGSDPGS

SMILES | hERG current change (%, negative = inhibition) at 1uM
Cc1ccc(N(CC(=O)N2CCN(c3ccccc3F)CC2)S(=O)(=O)c2c(C)noc2C)cc1 | 15.6%
CCC(=O)N1CCN(CCN=CC2=C(O)CC(c3cccs3)CC2=O)CC1 (stereo not drawn) | 9.17%
O=C(Cc1ccccc1)Nc1nonc1NC(=O)c1ccccc1 | 11.3%
c1ccc(CSc2ncn(-c3ccccc3)n2)cc1 | 7.84%
O=C1CC(/C=C/c2ccc(Cl)cc2)=Nc2ccccc2N1 | 12.5%
CN1c2ccsc2/C(=N/NC(=O)c2c(F)cccc2F)CS1(=O)=O | 6.95%
CCSc1nnc(NC(=O)[C@@H](NC(=O)c2ccccc2)C(C)C)s1 | 16.7%
CCCCOc1ccc(/C(O)=C2/C(=O)C(=O)N(CCCOC)C2c2ccncc2)cc1 (stereo not drawn) | 12.6%
Cc1cc(Nc2ccc(Cl)cc2)nc(N2CCOCC2)n1 | 15.7%
Cc1cc(C)c2nc(SC3CCOC3=O)cc(C)c2c1 (stereo not drawn) | 6.67%
CC1Cc2ccccc2N1C(=O)CN1CCCCC1.Cl (stereo not drawn) | 13.4%
Cl.Clc1ccc(C2=NNC(=NCC3CCCO3)SC2)cc1 (stereo not drawn) | 11.2%
O/N=C(/CCc1ccccc1)c1ccc2c(c1)OCCO2 | 2.98%
CC(=O)N1CCN(C(=O)c2oc3ccccc3c2C)CC1 | 8.69%
O=C(COC(=O)c1ccccc1C(=O)c1ccc(Cl)cc1)NCCc1ccccc1 | 6.87%
Cn1c(CN2CCOCC2)nnc1SCc1ccc(C#N)cc1 | 13.1%
O=C(O)CSC1CC(=O)N(c2ccc(Cl)c(Cl)c2)C1=O (stereo not drawn) | 11.7%
Cc1nn(C2CCS(=O)(=O)C2)c(Cl)c1/C=C/C(=O)OCC(=O)c1cc(C)n(-c2ccc(F)cc2)c1C (stereo not drawn) | 6.45%
CCCC1=Nc2cc(C(=O)NCCN3CCOCC3)ccc2Sc2ccc(C)cc21 | 11.9%

SMILES | hERG current change (%, negative = inhibition) at 1uM
COc1cccc(C(=O)SC2=NCCS2)c1 | 6.91%
COc1ccccc1NC(=O)C1=C(C)NC(=O)NC1c1cccc(OC)c1OC (stereo not drawn) | 8.49%
C[C@@H](NC(=O)c1nc[nH]c1C(=O)NCc1ccc(CNC(=O)OC(C)(C)C)cc1)c1ccccc1 | 7.66%
Oc1nc(Nc2ccccc2)sc1/C=C1\C=Nc2ccccc21 | 7.84%
COC(=O)C1CCN(c2cnccn2)CC1 | 10.1%
CC1CCC(NC(=O)CNC(=O)Cc2cccc3ccccc23)CC1 (stereo not drawn) | 10.3%
CN(C)c1ccc(NC(=O)CN2CCC(N3CCCCC3)CC2)cc1.O=C(O)C(=O)O | 12%
Clc1ccc(NCn2cncn2)nc1 | 5.87%
Cc1cccc(OCc2cc(-c3ccccc3)no2)c1C | 15.3%
COc1ccc(OC)c(S(=O)(=O)N(C(C)=O)c2ccc3oc(=O)sc3c2)c1 | -3.96%
CC1Cn2c(nc3sc4c(c3c2=O)CC(C)(C)OC4)N1CCO (stereo not drawn) | 12.2%
Cc1c(Cl)cccc1NS(=O)(=O)c1c(C(=O)N2CCOCC2)c(C)n(C)c1C | -1.38%
Cn1c(SCC(=O)Nc2ccc(F)cc2)nc2c([nH]c3ccccc32)c1=O | 5.63%
Cc1ccc(-c2nnc(N3CCN(C(=O)c4cccs4)CC3)c3ccccc23)cc1 | 1.85%
COc1nnc(-c2ccc(N3CCOCC3)c(NC(=O)c3ccccc3)c2)c2ccccc12 | -2.92%
CCOc1ccc(S(=O)(=O)NCCC(=O)Nc2nnc(C)s2)cc1 | 12.9%
CCOc1ccccc1NC(=S)N1CCN(c2cccc(OC)c2)CC1 | 8.71%
Cc1nc(NCC2CC2)c2nnn(Cc3ccccc3)c2n1 | 11.5%
C[N+]1(CC(=O)OCCCc2ccccc2)CCCC1.[I-] | 11.3%

SMILES | hERG current change (%, negative = inhibition) at 1uM
CC1CCN(S(=O)(=O)c2ccc(C(=O)Nc3nnc(C4CC4)o3)cc2)CC1 | 11.4%
Cc1c(NC(=O)COc2cccc(F)c2)c(=O)n(-c2ccccc2)n1C | 12.3%
O=C(Nc1cccnc1Cl)C1=NN(c2ccccc2)C(=O)CC1 | 11.1%
COC(=O)c1cc(S(=O)(=O)N2CCC(C(N)=O)CC2)oc1C | 12.2%
NNC(=O)Nc1cccc(C(F)(F)F)c1 | 13.9%
O=c1cc(CCl)[nH]c2nc3ccccc3n12 | 8.93%
Cc1cc(CNC(=O)COc2ccc(C)c(C)c2)c2ccccc2n1 | 6.1%
COc1ccc(N2CC(C)Cn3c2nc2c3c(=O)n(Cc3ccccc3F)c(=O)n2C)c(OC)c1 (stereo not drawn) | -3.43%
COc1cc(NC(=O)c2ccco2)c(C(=O)O)cc1OC | -5.47%
O=C(CSc1nnc(-c2ccc(OC(F)F)cc2)o1)NCc1cccs1 | -2.17%
CCOc1ccccc1C(=O)Nc1nncs1 | 10.5%
COc1ccccc1NS(=O)(=O)c1ccc(C(=O)NCCCn2ccnc2)cc1 | 13.1%
COc1cccc(-c2nn(-c3ccc(C)cc3)cc2C(=O)NCC2CCCO2)c1 (stereo not drawn) | -0.814%
CC(C)NC(=S)N/N=C/c1cccs1 | 6.26%
O=C(Nc1ccc[n+](CC(=O)c2cccc3ccccc23)c1)c1ccccc1.[Br-] | -7.08%
O=C(OCCN1C(=O)CCC1=O)c1ccc(S(=O)(=O)N2CCCCC2)cc1 | 8.46%
CCOc1ccccc1NC(=O)CN1CCc2ccccc2C1 | 5.32%
COc1ccc(-n2nc(C(=O)NCC(=O)N3CCN(c4ccccc4)CC3)c3ccccc3c2=O)c(OC)c1 | 14.8%
CC(=O)Nc1ccc(Sc2ncccc2C(=O)Nc2cc(Cl)cc(Cl)c2)cn1 | 15.9%
